{"source": "PubChem BioAssay AID2147", "about": "(National Center for Advancing Translational Sciences (NCATS), 2009)", "note": "In all, about 230,000 compounds went through this assay and about 3,600 (1.6%) were called active. Inconclusive results, whose numbers are uncertain, are shown with a selection of clear calls. Calls come from the whole dose curve; as a rule, active = well fitted inhibition curve with a large enough effect (not every such curve was filed as active); inconclusive = small, poorly fitted or top-dose-only effect, or another doubt; inactive = no such curve, though single readings can be large or run the other way. A potency beside an inconclusive call is a rough fit, not a confirmed value.", "data": [{"biological_target": "Lysine-specific demethylase 4E (Homo sapiens) (UniProt B2RXH2)", "sequence (B2RXH2 whole entry, looked up, the tested form may be a part)": "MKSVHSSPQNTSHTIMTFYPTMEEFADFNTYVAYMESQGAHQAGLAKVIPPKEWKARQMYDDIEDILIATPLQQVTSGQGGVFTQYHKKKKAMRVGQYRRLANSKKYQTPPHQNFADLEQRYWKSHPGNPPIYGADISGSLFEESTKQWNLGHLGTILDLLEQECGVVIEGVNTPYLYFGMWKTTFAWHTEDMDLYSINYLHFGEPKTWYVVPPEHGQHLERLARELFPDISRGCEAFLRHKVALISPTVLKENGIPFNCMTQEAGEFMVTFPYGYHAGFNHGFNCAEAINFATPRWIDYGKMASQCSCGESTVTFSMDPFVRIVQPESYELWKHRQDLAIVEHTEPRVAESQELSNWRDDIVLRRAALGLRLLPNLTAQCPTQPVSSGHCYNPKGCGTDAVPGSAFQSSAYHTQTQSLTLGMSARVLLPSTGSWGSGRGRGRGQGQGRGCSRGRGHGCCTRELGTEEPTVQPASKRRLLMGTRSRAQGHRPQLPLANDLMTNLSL", "test": "qHTS Assay for Inhibitors of Human Jumonji Domain Containing 2E (JMJD2E)", "settings": "JMJD2E catalytic domain, FDH-coupled NADH fluorescence (FDH is formaldehyde dehydrogenase); series mostly up to 57.1 µM", "values": [{"molecule": "Fc1ccccc1/C=C1\\CCCC2=C1NC(=S)NC2c1ccccc1F", "note": "(configuration not stated); note: nearly all actives have a fitted effect of over 50% in size; note: potency is the fitted concentration of half-maximal effect; tags give direction and shape of the fitted curve", "Potency": "inconclusive: 39.8 µM [inhibitor, single point]"}, {"molecule": "COc1ccc(COc2cc(-c3cccc(OC)c3)nc3ccc(NC(=O)C(C)C)cc23)cc1", "Potency": "inconclusive: 11.2 µM [inhibitor, partial curve]"}, {"molecule": "Cc1cc(OC(=O)c2ccc(S(=O)(=O)N(C)C)cc2)c([N+](=O)[O-])c(=O)[nH]1", "Potency": "inactive"}, {"molecule": "Cc1ccc(S/C(=N\\S(=O)(=O)c2ccc(Cl)cc2)c2ccccc2)cc1", "Potency": "inconclusive: 28.2 µM [inhibitor, single point]"}, {"molecule": "CCN(CC)c1ccc(/C=N/NC(=O)c2ccc3nc[nH]c3c2)c(O)c1", "Potency": "inconclusive: 31.6 µM [inhibitor, single point]"}, {"molecule": "CCC(=O)c1c(O)cc(O)cc1O", "Potency": "inactive"}, {"molecule": "COc1ccc2nc(SCc3cnc(C)nc3N)[nH]c2c1", "Potency": "inactive"}, {"molecule": "COC(=O)c1oc2ccccc2c1N", "Potency": "inconclusive: 25.1 µM [inhibitor, single point]"}, {"molecule": "O=C(Cc1ccc([N+](=O)[O-])cc1)N/N=C/c1ccc([N+](=O)[O-])o1", "Potency": "inconclusive: 39.8 µM [inhibitor, single point]"}, {"molecule": "O=C(Nc1nc(-c2ccccn2)cs1)c1ccc(Cl)s1", "Potency": "inconclusive: 25.1 µM [inhibitor, partial curve]"}, {"molecule": "O=C(O)C1Cc2c([nH]c3ccccc23)C(c2coc3ccccc3c2=O)N1", "note": "(configuration not stated)", "Potency": "inconclusive: 39.8 µM [inhibitor, single point]"}, {"molecule": "N#Cc1ccc2ccn(CC(=O)NCc3ccccc3)c2c1", "Potency": "inconclusive: 35.5 µM [inhibitor, single point]"}, {"molecule": "Fc1ccc(F)c(C2=NNC(=Nc3ccccc3F)SC2)c1", "Potency": "inactive"}, {"molecule": "CC(C)OC(=O)n1c(=S)oc2ccccc21", "Potency": "inactive"}, {"molecule": "COCCNCC(=O)Nc1ccc(C)c(S(=O)(=O)N2CCCCC2)c1", "Potency": "inconclusive: 25.1 µM [inhibitor, single point]"}, {"molecule": "COc1ccc2cc(C(=O)NC3CCCCC3)c(=O)oc2c1", "Potency": "inconclusive: 4.47 µM [inhibitor, partial curve]"}, {"molecule": "Cc1onc(-c2ccccc2)c1C(=O)Nc1nnc(N2CCCCCC2)s1", "Potency": "inconclusive: 35.5 µM [inhibitor, single point]"}, {"molecule": "COC(=O)c1cccc(NS(=O)(=O)c2cccs2)c1C", "Potency": "inactive"}, {"molecule": "CCc1ccc(C(=O)COC(=O)CCc2nc3ccccc3c(=O)[nH]2)cc1", "Potency": "inconclusive: 28.2 µM [inhibitor, partial curve]"}, {"molecule": "CCOC(=O)C1(Cc2cccc(F)c2)CCN(C2CCOCC2)CC1", "Potency": "inactive"}, {"molecule": "CCCc1cc(NCCCCO)n2c(nc3ccccc32)c1C#N", "Potency": "inconclusive: 28.2 µM [inhibitor, partial curve]"}, {"molecule": "Cc1ccc(N(C(=O)CCl)C(C(=O)NC2CCCCC2)c2cccnc2)cc1C", "note": "(configuration not stated)", "Potency": "inactive"}, {"molecule": "Cc1cccc(Nc2ncnc3c2cnn3Cc2ccccc2)c1", "Potency": "inactive"}, {"molecule": "CCOCCCNC(C(=O)Nc1ccc(OC)c(Cl)c1)c1ccccc1", "note": "(configuration not stated)", "Potency": "inactive"}, {"molecule": "COc1ccc(NC(=O)Cn2cnc3ccccc3c2=O)cc1OC", "Potency": "inactive"}, {"molecule": "OCCNc1c2ccccc2nc2ccccc12", "Potency": "inconclusive: 20 µM [inhibitor, partial curve]"}, {"molecule": "Cc1ccc(NC(=O)CCC(=O)N/N=C/c2cccs2)cc1", "Potency": "inactive"}, {"molecule": "O=C(O)c1ccc(Cl)c2c1C1C=CCC1C(c1ccccn1)N2", "note": "(configuration not stated)", "Potency": "active: 25.1 µM"}, {"molecule": "CN(C)c1ccc(C(=O)/C=C/c2ccco2)cc1", "Potency": "inconclusive: 20 µM [inhibitor, single point]"}, {"molecule": "COc1cccc(CN2CCNC(=O)C2CC(=O)NCc2cn3cccc(C)c3n2)c1OC", "note": "(configuration not stated)", "Potency": "inconclusive: 39.8 µM [inhibitor, single point]"}, {"molecule": "NNC(=O)c1ccc(CSc2nc3ccccc3s2)cc1", "Potency": "inconclusive: 39.8 µM [inhibitor, single point]"}, {"molecule": "Cc1nc2cc(-c3ccccc3)nn2c(C)c1CCC(=O)NC(C)c1ccc2c(c1)OCCO2", "note": "(configuration not stated)", "Potency": "inconclusive: 35.5 µM [inhibitor, single point]"}, {"molecule": "C=CCOn1c(=O)c(C)[n+]([O-])c2ccccc21", "Potency": "inconclusive: 35.5 µM [inhibitor, single point]"}, {"molecule": "O=C(NCc1ccccn1)/C(=C/c1ccco1)NC(=O)c1ccccc1", "Potency": "inactive"}, {"molecule": "CC1CCC(C(C)C)C(OCC(O)C[N+]2(C)CCCCC2)C1", "note": "(configuration not stated)", "Potency": "inconclusive: 28.2 µM [inhibitor, single point]"}, {"molecule": "CC(C)CCC(C)N=Cc1c(O)n(Cc2ccccc2)c(=O)c2ccccc12", "note": "(configuration not stated)", "Potency": "inconclusive: 39.8 µM [inhibitor, single point]"}, {"molecule": "N#C/C(=C/c1cccc([N+](=O)[O-])c1)C(=O)Nc1ccccc1O", "Potency": "inconclusive: 39.8 µM [inhibitor, single point]"}, {"molecule": "CCC(CC)C(=O)Nc1nnc(-c2cccs2)s1", "Potency": "inconclusive: 31.6 µM [inhibitor, partial curve]"}, {"molecule": "O=[N+]([O-])c1ccc(O)c(/C=N/Nc2nc3ccccc3[nH]2)c1", "Potency": "inconclusive: 35.5 µM [inhibitor, single point]"}, {"molecule": "CCOC(=O)C1=C(N)N2C(=O)C(C)SC2=C(C(=O)OCC)C1c1ccccc1", "note": "(configuration not stated)", "Potency": "inconclusive: 39.8 µM [inhibitor, single point]"}, {"molecule": "COc1ccc(OC)c(C(=O)NC(CC(N)=O)c2ccc(N3CCC(N4CCCC4)CC3)c([N+](=O)[O-])c2)c1", "note": "(configuration not stated)", "Potency": "inconclusive: 35.5 µM [inhibitor, single point]"}, {"molecule": "Cc1cc(NC(=O)c2c(-c3ccccc3Cl)noc2C)no1", "Potency": "inactive"}, {"molecule": "CCc1nnc(SCC(=O)NC2CCCC2)nc1CC", "Potency": "inactive"}, {"molecule": "Nc1nnn(CC(=O)N/N=C/c2cccc3ccccc23)n1", "Potency": "inconclusive: 39.8 µM [inhibitor, single point]"}, {"molecule": "CCOC(=O)c1oc2ccccc2c1NC(=O)c1cccc(OC)c1OC", "Potency": "inconclusive: 31.6 µM [inhibitor, partial curve]"}, {"molecule": "c1ccc(-c2nccc(-c3ccc4c(c3)OCO4)n2)cc1", "Potency": "inconclusive: 22.4 µM [inhibitor, partial curve]"}, {"molecule": "COc1ccc(C(=O)/C=C/Nc2ccccn2)cc1", "Potency": "inconclusive: 25.1 µM [inhibitor, single point]"}]}]}
